{
  "source": "PubChem BioAssay AID686970",
  "about": "(National Center for Advancing Translational Sciences (NCATS), 2013)",
  "note": "About 6,000 (1.7%) of roughly 360,000 compounds were called active. The inconclusive results got no clear call from the source; some entries with a clear call stand among them for comparison. Calls come from the whole dose curve; as a rule, active = well fitted cell-killing curve with a large enough effect; inconclusive = small, poorly fitted or top-dose-only effect, or effect the other way; inactive = flat fitted curve, though single readings scatter. No potency is given beside an inconclusive call; the fits are too rough. Potency is the fitted concentration of half-maximal effect; tags give direction and shape of the fitted curve.",
  "data": [
    {"experiment": "qHTS for induction of synthetic lethality in tumor cells producing 2HG: qHTS for the HT-1080-NT fibrosarcoma cell line;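 note: NT is the 2HG producing partner of a matched IDH1 knockdown line; nearly all actives have a fitted effect of over 55% in size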;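 for activity, negative = less viability: 0% = DMSO-treated cells and -100% = media-only wells without cells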", "settings": "HT-1080-NT fibrosarcoma viability, CellTiter-Glo ATP luminescence, 48 h; activity, negative = less viability: at 46.1 µM (top of the series) unless noted", "how_it_was_run": "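Fibrosarcoma NT cells, 750 per well in 5% FBS RPMI, were exposed to compound for 48 hours. Viability: CellTiter-Glo luminescence.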", "values": [
      {"smiles": "c1ccc(OCCNc2nc(NCC3CC3)nc3ccsc23)cc1", "Potency": "active: 20.6 µM"},
      {"smiles": "Cc1ccc2nc(/C(C#N)=C\\c3ccc(Oc4ccc(C(F)(F)F)cc4[N+](=O)[O-])cc3)[nH]c2c1", "Potency": "inconclusive [cytotoxic, single point]"},
      {"smiles": "COc1ccc(-c2csc(N(CCCN(C)C)C(=O)c3cccs3)n2)cc1", "Potency": "active: 12.6 µM"},
      {"smiles": "Cc1c(NC(=O)CN2CCN(c3cccc(Cl)c3)CC2)c(=O)n(-c2ccccc2)n1C", "activity, negative = less viability": "inactive: -1.41%"},
      {"smiles": "CSc1ccc(S(=O)(=O)Nc2ccc3c4c(cccc24)CC3)cc1", "Potency": "inconclusive [cytotoxic, partial curve]"},
      {"smiles": "COc1ccc(/C=C/c2nc3cc(-c4ccccc4)ccc3o2)cc1O", "Potency": "inconclusive [cytotoxic, single point]"},
      {"smiles": "Cc1ccc(OCCOc2ccc(Br)cc2/C=N\\NC(N)=O)cc1", "activity, negative = less viability": "inactive: -9.84%"},
      {"smiles": "Nc1nc(NC(=O)/C=C\\C(=O)O)nn1-c1ccccc1", "activity, negative = less viability": "inactive: 22.6%"},
      {"smiles": "Nc1ccc(C2(c3ccc(N)cc3)C(=O)Nc3ccccc32)cc1", "Potency": "inconclusive [cytotoxic, single point]"},
      {"smiles": "OC(Cc1ccccc1)c1ncc(-c2ccc3ccccc3c2)[nH]1", "note": "(stereo unspecified)", "Potency": "inconclusive [cytotoxic, single point]"},
      {"smiles": "CN1CCN(S(=O)(=O)c2cnccc2N2CCN(c3cccc(Cl)c3)CC2)CC1", "Potency": "inconclusive [cytotoxic, single point]"},
      {"smiles": "O=C(Cc1csc(NC(=O)Nc2ccc(Cl)cc2)n1)NC1CCCC1", "Potency": "inconclusive [cytotoxic, single point]"},
      {"smiles": "CCCn1c(=O)c(C(=O)NNC(=O)c2ccc(Cl)cc2Cl)c(O)c2ccccc21", "activity, negative = less viability": "inactive: -6.37%"},
      {"smiles": "CC(C)N(C)CCOC(=O)/C=C/c1ccccc1", "activity, negative = less viability": "inactive: 2.54%"},
      {"smiles": "O=C(NCC1CCCN1S(=O)(=O)c1cccs1)c1c(F)cccc1F", "note": "(stereo unspecified)", "activity, negative = less viability": "inactive: 7.5%"},
      {"smiles": "O=c1[nH]c(C2CCCN(S(=O)(=O)Cc3ccccc3)C2)nc2c1nnn2Cc1cccc(Cl)c1", "note": "(stereo unspecified)", "activity, negative = less viability": "inactive: -20.1%"},
      {"smiles": "Cc1ccc(Nc2nc(-c3ccc(S(=O)(=O)N4CCOCC4)cc3)cs2)cc1", "Potency": "inconclusive [cytotoxic, single point]"},
      {"smiles": "CC(CNCCCn1ccc(NC(=O)OCc2ccccc2)nc1=O)c1ccccc1", "note": "(stereo unspecified)", "activity, negative = less viability": "inactive: -7.22%"},
      {"smiles": "COc1cc(OC)c2c(-c3cccc(-c4ccc(F)c(Cl)c4)c3)cc(=O)oc2c1", "Potency": "inconclusive [cytotoxic, full curve]"},
      {"smiles": "Cc1ccc(-n2c(Cl)c(Cl)[nH]c(=O)c2=O)cc1", "activity, negative = less viability": "inactive: -3.25%"},
      {"smiles": "Cc1nc(Oc2ccccc2)c2ccccc2n1", "Potency": "inconclusive [cytotoxic, single point]"},
      {"smiles": "O=C(CNc1cccc(S(=O)(=O)N2CCCC2)c1)Nc1cccc(Br)c1", "activity, negative = less viability": "inactive: -20.7%"},
      {"smiles": "NC(=S)NNc1cccc2cccnc12", "Potency": "inconclusive [cytotoxic, full curve]"},
      {"smiles": "Cc1ccc(Nc2nc(NCCO)c3ccccc3n2)cc1C", "Potency": "active: 23.1 µM"},
      {"smiles": "CC(C)(C)c1nnc(NC(=O)COc2ccc3c(c2)OCO3)s1", "Potency": "inconclusive [cytotoxic, partial curve]"},
      {"smiles": "CN(Cc1cnn(Cc2ccccc2)c1)C(=O)c1cccc(S(=O)(=O)N2CCOCC2)c1", "Potency": "inconclusive [cytotoxic, partial curve]"},
      {"smiles": "O=C(COc1cc(F)ccc1[N+](=O)[O-])Nc1cccc(Br)c1", "Potency": "inconclusive [rising, partial curve]"},
      {"smiles": "N#C/C(=C(/O)CN1CCN(c2ccccc2F)CC1)c1nc(-c2ccccc2)cs1", "Potency": "inconclusive [cytotoxic, single point]"},
      {"smiles": "O=c1oc2cc(Br)ccc2n1Cc1ccccc1", "activity, negative = less viability": "inactive: 4.99%"},
      {"smiles": "CC(O)(c1cccc(F)c1)c1nc(-c2ccc(Cl)cc2)cs1", "note": "(stereo unspecified)", "Potency": "inconclusive [cytotoxic, single point]"},
      {"smiles": "Fc1ccc2c(c1)C(c1cccnc1)=NNC(c1cccs1)=N2", "Potency": "inconclusive [cytotoxic, single point]"},
      {"smiles": "O=S(=O)(c1ccc(OCC2CO2)cc1)c1ccc(OCC2CO2)cc1", "note": "(stereo unspecified)", "Potency": "inconclusive [cytotoxic, single point]"},
      {"smiles": "O=C(Cc1ccccc1F)Nc1nc(-c2cccnc2)cs1", "Potency": "inconclusive [rising, full curve]"},
      {"smiles": "CCOC(=O)[C@]12CCCC=C1N(Cc1cccc3ccccc13)C(=O)[C@H](CC(=O)NCCc1ccccc1OC)C2", "Potency": "inconclusive [cytotoxic, single point]"},
      {"smiles": "Nc1nc(Nc2ccccc2)nc2ccccc12", "Potency": "inconclusive [cytotoxic, single point]"},
      {"smiles": "COc1cccc(CNC(=O)c2nnn(CC(=O)Nc3ccc(C)c(C)c3)c2N)c1", "Potency": "inconclusive [cytotoxic, single point]"},
      {"smiles": "COc1ccc(/C=C2/SC(=O)N(CCNC(=O)C3CC(=O)N(Cc4ccccc4)C3)C2=O)cc1", "note": "(stereo unspecified)", "activity, negative = less viability": "inactive: -12.6%"},
      {"smiles": "O=C(c1ccccc1F)N1CCC2CC1c1cc(-c3ccc4c(c3)OCO4)ccc12", "note": "(stereo unspecified)", "Potency": "inconclusive [cytotoxic, single point]"},
      {"smiles": "C#CCn1cc(/C=C2\\NC(=O)NC2=O)c2ccccc21", "Potency": "inconclusive [cytotoxic, single point]"},
      {"smiles": "O=C(Nc1ccccc1Cl)c1cc(C2CCCN(C(=O)c3ccccc3)C2)on1", "note": "(stereo unspecified)", "activity, negative = less viability": "inconclusive: 3.3%"},
      {"smiles": "CCCC(=O)Nc1ccc(Sc2ccc([N+](=O)[O-])cc2)cc1", "Potency": "inconclusive [cytotoxic, partial curve]"},
      {"smiles": "O=C(Nc1cnccn1)c1ccc(Cl)cc1", "activity, negative = less viability": "inactive: -20.6%"},
      {"smiles": "COc1ccc(/C=C/CN2CCCC(CO)(Cc3cccc(Cl)c3)C2)cc1", "note": "(stereo unspecified)", "Potency": "inconclusive [cytotoxic, single point]"},
      {"smiles": "O=C(O)c1cccc(N/N=C/c2cc(Br)cc(Br)c2O)c1", "activity, negative = less viability": "inactive: -11.2%"},
      {"smiles": "Cc1ccc(S(C)(=O)=O)cc1C(=O)Nc1cccc(S(=O)(=O)N2CCCCCC2)c1", "activity, negative = less viability": "inactive: -13.1%"},
      {"smiles": "O=C(O)c1cc(-c2ccc3c(c2)OCO3)nc2ccccc12", "activity, negative = less viability": "inactive: -15.8%"},
      {"smiles": "CC(C)C[C@@H](COCc1ccc(Cl)cc1)N1CCN(C(=O)c2ccc(C(F)(F)F)cc2)CCC1=O", "Potency": "inconclusive [cytotoxic, single point]"},
      {"smiles": "NCCCN(Cc1ccc(Cl)cc1)c1ccc(Br)cn1", "Potency": "inconclusive [cytotoxic, single point]"},
      {"smiles": "Cn1c(C(=O)NC2CCCCCC2)cc2c(=O)n(C)c3ccccc3c21", "Potency": "inconclusive [rising, single point]"},
      {"smiles": "CCCCn1nc(NC(=O)c2cccs2)c2cc3cc(OC)ccc3nc21", "activity, negative = less viability": "inconclusive: -32.5% [cytotoxic]"},
      {"smiles": "CCN(CC)c1ccc(C(=O)NNC(=O)Cn2c(=O)cnc3ccccc32)cc1", "activity, negative = less viability": "inactive: 12.7%"},
      {"smiles": "O=C1C2C(c3ccccc3)CC=CC2[C@H](c2ccc(C(F)(F)F)cc2)N1Cc1ccccc1", "note": "(stereo partly specified)", "Potency": "inconclusive [cytotoxic, single point]"},
      {"smiles": "CC1=CC2=NC(=O)/C(=C/c3cccn3Cc3ccccc3)C(=N)N2O1", "Potency": "inconclusive [cytotoxic, full curve]"},
      {"smiles": "Cc1ccc(NC(=O)CCCNC(=O)c2ccc(Cl)cc2)cc1S(=O)(=O)N1CCCCC1", "Potency": "inconclusive [cytotoxic, partial curve]"},
      {"smiles": "COc1ccc(O)c(/C=N/Nc2nc3ccccc3[nH]2)c1", "activity, negative = less viability": "inactive: 11.2%"},
      {"smiles": "Clc1ccc(Cn2ncc3c(N4CCN(c5ccccc5)CC4)ncnc32)cc1", "activity, negative = less viability": "inconclusive: -5.8% [cytotoxic]"},
      {"smiles": "COc1ccc(Cn2c(O)c(/C=N/NC(=O)c3cccnc3)c3ccccc3c2=O)cc1", "Potency": "inconclusive [cytotoxic, single point]"},
      {"smiles": "CCCCCCN1C[C@@H](n2cc(COC(=O)c3ccccc3)nn2)[C@H](O)C[C@@H]1c1ccc(OC)cc1", "Potency": "inconclusive [cytotoxic, single point]"},
      {"smiles": "CCCCN(C=O)c1c(CC)nc2ccc(C(=O)N3CCN(C(C)=O)CC3)cn12", "Potency": "inconclusive [rising, partial curve, poor fit]"},
      {"smiles": "CC(C)(C)c1ccc(C(=O)NCCn2c(N)c(C#N)c3nc4ccccc4nc32)cc1", "Potency": "inconclusive [cytotoxic, single point]"},
      {"smiles": "COC(=O)c1ccc(Cn2nc(C)c(Cl)c2C)o1", "activity, negative = less viability": "inactive: 4.65%"},
      {"smiles": "CC(NC(=O)c1ccc(F)cc1)C1CC2CCC1C2", "note": "(stereo unspecified)", "activity, negative = less viability": "inactive: 4.8%"},
      {"smiles": "Cc1ccc(C(O)c2ncc(-c3cccc4ccccc34)[nH]2)c(C)c1", "note": "(stereo unspecified)", "Potency": "inconclusive [cytotoxic, partial curve]"},
      {"smiles": "CCN(CC)c1ccc(/C=N/NC(=O)c2ccco2)c(O)c1", "Potency": "inconclusive [cytotoxic, full curve]"},
      {"smiles": "COc1ccc2c(c1)CC/C(=C\\c1ccc(OC)c(Cn3nc(C)cc3C)c1)C2=O", "Potency": "inconclusive [cytotoxic, single point]"},
      {"smiles": "COc1ccccc1NC(=O)CCNC(=O)c1ccc(C)cc1", "activity, negative = less viability": "inactive: 2.02%"},
      {"smiles": "CCCCc1oc2ccccc2c1C(=O)c1cc(I)c(OCCN(CC)CC)c(I)c1", "Potency": "inconclusive [cytotoxic, single point]"},
      {"smiles": "O=C(Cc1cccs1)Nc1nc(-c2ccc(F)c(F)c2)cs1", "activity, negative = less viability": "inactive: -6.85%"},
      {"smiles": "COc1cc(CCNC(=O)c2cnn3ccccc23)cc(OC)c1OC", "Potency": "inconclusive [cytotoxic, single point]"},
      {"smiles": "CC(C)(C)C(=O)Cn1ncc(Cl)c(Cl)c1=O", "Potency": "active: 13 µM"},
      {"smiles": "C[C@H]1CN([C@@H](C)CO)C(=O)c2cccc(NC(=O)Nc3ccc(C(F)(F)F)cc3)c2O[C@@H]1CN(C)S(=O)(=O)c1ccccc1", "Potency": "inconclusive [cytotoxic, single point]"}
    ]}
  ]
}
